In PubChem BioAssay AID1671193 (National Center for Advancing Translational Sciences (NCATS), 2021):
Where “and” joins values, the source holds several entries; their conditions need not be identical. Identical values can stand only once. The campaign covered roughly 150,000 compounds. About 180 (0.12%) were called active. The inconclusive results got no clear call from the source; some entries with a clear call stand among them for comparison. The call rests on the fitted dose curve; in most records, active means well fitted cell-killing curve with a large enough effect; inconclusive means small, poorly fitted or top-dose-only effect, or effect the other way; inactive means flat fitted curve, though single readings scatter. Potencies beside an inconclusive call are fits to weak or partial responses and may not hold up.

Assay: GF-AFC viability counterscreen for inhibitors of alpha-synuclein gene (SNCA) expression; further: nearly all actives have a fitted effect of over 30% in size
Details: HEK-293-SNCA-luc viability, GF-AFC fluorescence, 24 h; series mostly up to 57.1 µM
Method in brief: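 HEK-293-SNCA-luc cells (1500/well) plated 24 h, then exposed 24 h to a dilution series; GF-AFC added 30 min at 37C, fluorescence 405/540 nm; normalised to medium-only and DMSO wells, Hill fit.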
Potency means the concentration at half of the fitted maximal effect; tags describe the fitted curve by direction and shape.

Row | SMILES | Potency
1 | CN(C)CCCCCCNC(=O)c1cccc(-c2cc(O)c3ncccc3c2)c1 | inconclusive: 33.6 µM [cytotoxic, single point]
2 | OC1(CN2CCCCC2)CCN(Cc2cnn(-c3cccc(F)c3)c2)C1 (stereo unspecified) | inactive
3 | O=C(CC1CC1)N[C@@H]1CN(Cc2ccccc2)C[C@H]1CO | inconclusive: 0.708 µM [cytotoxic, partial curve, poor fit]
4 | COCCn1c(=O)c(-c2ccc(F)cc2)nc2cnc(Oc3ccc(OC)cc3)nc21 | inconclusive: 3.98 µM [cytotoxic, partial curve, poor fit]
5 | CCOC(=O)c1cc(S(=O)(=O)NCc2ccc(F)cc2)[nH]n1 | inactive
6 | CC(C)(O)CC(=O)NCCn1ccc2ncnc(Nc3ccc(Oc4cccc(C(F)(F)F)c4)c(Cl)c3)c21 | inconclusive: 13.6 µM [cytotoxic, partial curve]
7 | CC(=O)N1c2ccc(S(=O)(=O)NCc3ccc(Cl)cc3)cc2CC1C (stereo unspecified) | inconclusive: 1.78 µM [rising, full curve]
8 | COc1ccc(CCN(Cc2ccccc2F)CC2(O)CCCNC2)cc1 (stereo unspecified) | inactive
9 | CSc1cccc(NC(=O)O[C@@H]2CC[C@]3(C)C(CC[C@@H](O)[C@H]3CC(=O)N3CCC(C)CC3)[C@]2(C)CO)c1 (stereo partly specified) | inconclusive: 17.8 µM [cytotoxic, partial curve]
10 | Cc1nn(C)c2ncnc(N3CCC4(C3)C(=O)N(CC(N)=O)c3ccccc34)c12 (stereo unspecified) | inactive
11 | Cc1nc2c([nH]1)c(=O)n(C)c(=O)n2Cc1ccco1 | inconclusive: 2.51 µM [rising, full curve, poor fit]
12 | O=C(c1ccncc1)N1CCC(Oc2ccccc2-c2nc(-c3ccccc3)no2)C1 (stereo unspecified) | inconclusive: 25.1 µM [cytotoxic, single point]
13 | COc1ccc(OC)c(C(O)Cn2ccn3nc(-c4cccs4)cc3c2=O)c1 (stereo unspecified) | inconclusive: 15.8 µM [cytotoxic, partial curve, poor fit]
14 | COc1ccc(-c2cn(C)c(=O)n3cc(COc4ccc(C(=O)O)cc4)nc23)c(C)c1 | inactive
15 | COc1ccc(-c2nc(Cn3c(SCc4cccc(F)c4)nc4cccnc43)c(C)o2)cc1 | inconclusive: 39.8 µM [cytotoxic, partial curve, poor fit]
16 | CCc1noc(-c2cn(C3CCCN(C(=O)c4ccc(F)c(Cl)c4)C3)nn2)n1 (stereo unspecified) | inactive
17 | COc1ccc(C(=O)N2CCC(C(=O)N3CCCC(c4nc5ccncc5[nH]4)C3)CC2)cc1 (stereo unspecified) | inactive
18 | COc1cccc(CCC(=O)N2CCCC(CO)(CC3CC3)C2)c1 (stereo unspecified) | inconclusive: 0.708 µM [rising, full curve, poor fit]
19 | O=C(NC1CCN(c2cc(-c3ccc(F)cc3)[nH]n2)C1)c1ccc(F)c(F)c1 (stereo unspecified) | inconclusive: 20 µM [cytotoxic, single point]
20 | FC(F)(F)c1ccc(N2C3CCC2CN(Cc2ccc(-c4cccs4)cc2)C3)cc1 | inactive
21 | CC1CCN(C(=O)CN2c3ccc(Br)cc3-c3ccccc3S2(=O)=O)CC1 | inconclusive: 20 µM [cytotoxic, single point]

Row | SMILES | Potency
22 | CCNc1ncc2nc(-c3ccc(OC)cc3)c(=O)n(CCC#N)c2n1 | inconclusive: 3.98 µM [rising, full curve]
23 | COc1ccc(C(=O)N[C@@H]2CCC[C@@H]2C(=O)N2CCN(c3ccccn3)CC2)cn1 | inconclusive: 28.2 µM [cytotoxic, single point]
24 | O=C(NCc1ccccc1)c1cn2cc(-c3cccc(C(F)(F)F)c3)sc2n1 | inactive
25 | C[C@H](NC(=O)C[C@@H]1c2nc(NC(=O)c3ccc(F)cc3)sc2C[C@@H]2[C@](C)(CO)[C@H](O)CC[C@]21C)c1ccccc1 | inconclusive: 22.4 µM [cytotoxic, partial curve, poor fit]
26 | Cn1ncc(Cl)c1-c1cc(C(=O)NC(CN)Cc2ccc(F)c(F)c2)oc1Cl (stereo unspecified) | inconclusive: 0.15 µM [cytotoxic, full curve, poor fit]
27 | Cn1cc(-c2nc3cnc(Oc4ccccc4)nc3n(CCC#N)c2=O)c2ccccc21 | inconclusive: 3.55 µM [rising, partial curve, poor fit]
28 | Cc1ccccc1Cn1c(=O)n(CC2CCC(C(=O)N3CCC(C)CC3)CC2)c(=O)c2sccc21 (stereo unspecified) | inconclusive: 39.8 µM [cytotoxic, single point]
29 | CN(C)CCCc1cc(C(=O)Nc2ccc(-c3ccncc3)cc2)ccc1O | inconclusive: 14.1 µM [rising, partial curve, poor fit]
30 | CN(C(=O)CSc1nc2ccc(NC(=O)COc3ccc(F)cc3)cc2s1)c1ccccc1 | inconclusive: 25.1 µM [cytotoxic, single point]
31 | CC(=O)c1cccc(NC(=O)Cn2c(N3CCc4ccccc4C3)nc(C)cc2=O)c1 | inconclusive: 11.2 µM [cytotoxic, partial curve, poor fit]
32 | Cc1cccc(-c2nc3cnccn3c2NCCC(=O)N2CCCCCC2)c1 | inconclusive: 17.8 µM [rising, partial curve, poor fit]
33 | COCCn1c(=N)c(C(=O)NCC2CCCO2)cc2c(=O)n3ccccc3nc21 (stereo unspecified) | inconclusive: 25.1 µM [rising, partial curve]
34 | COc1ccc(CCC(=O)N2CCCC(n3cc(-c4nc(-c5ccccc5)no4)nn3)C2)cc1 (stereo unspecified) | inactive
35 | COc1ccc(CCNc2ncnc3c2CN(c2ccc(Cl)cc2)C(=O)N(C)C3)cc1 | inconclusive: 31.6 µM [cytotoxic, single point]
36 | COc1ccc(C(=O)N2C[C@@H](Oc3ccccc3)C[C@@H]2C(=O)N2CCOCC2)cc1 | inactive
37 | CCN(CC)CCCNC(=O)c1c2c(nc3ccccc13)C(=O)N(C1CCCCC1)C2 | inconclusive: 0.355 µM [cytotoxic, full curve, poor fit]
38 | COc1ccccc1-c1nc(C2CC(=O)N(c3ccc(F)c(Cl)c3)C2)no1 (stereo unspecified) | inconclusive: 6.31 µM [rising, single point]
39 | Cc1noc(C)c1-c1cc(-c2cnn(C)c2)cn2cncc12 | inactive
40 | CCOc1ccc(C2c3c(-c4ccccc4O)n[nH]c3C(=O)N2Cc2cccnc2)cc1OC (stereo unspecified) | inactive
41 | COc1cc2nc(N3CCCN(C)CC3)nc(NC3CCN(Cc4ccccc4)CC3)c2cc1OC | inconclusive: 19.2 µM [cytotoxic, partial curve] and inconclusive: 15.8 µM [cytotoxic, partial curve, poor fit]
42 | CCc1ccc(-n2nnnc2N2CCN(C(=O)Nc3ccc(C)c(F)c3)CC2)cc1 | inconclusive: 1.41 µM [cytotoxic, full curve, poor fit]

Row | SMILES | Potency
43 | O=[S+]1([O-])NC2(CCN(Cc3cccs3)CC2)COc2ccccc21 | inactive
44 | C=C1C(=O)[C@@]23C(CC[C@@H]1[C@H]2O)[C@@]12CO[C@]3(O)[C@@H](O)[C@@H]1C(C)(C)CC[C@@H]2O (stereo partly specified) | active: 27.1 µM and active: 29.9 µM
45 | Cc1c(C(=O)N2CCC(C)CC2)c(S(=O)(=O)NCc2ccc(Br)cc2)c(C)n1C | inconclusive: 3.98 µM [cytotoxic, full curve]
46 | Cc1ccc(C)c(OCC(=O)c2ccc3c(c2)N(CCCC(=O)NCC2CCCO2)C(=O)CO3)c1 (stereo unspecified) | inconclusive: 2.51 µM [cytotoxic, full curve, poor fit]
47 | Nc1cc(=O)nc(SCC(=O)Nc2ccc(F)cc2)n1-c1ccccc1Cl | inconclusive: 28.2 µM [cytotoxic, single point]
48 | Fc1cnc(N2CCCC(OCc3cccnc3)C2)nc1N1CCOCC1 (stereo unspecified) | inactive
49 | COc1cc(C2CC(=O)N(Cc3ccc(F)cc3)c3ccccc3S2)cc(OC)c1OC (stereo unspecified) | inconclusive: 39.8 µM [cytotoxic, single point]
50 | O=C(Nc1cccc(Cl)c1)c1ccnc(-c2nnc3ccc(N4CCOCC4)nn23)c1 | inconclusive: 39.8 µM [cytotoxic, single point]
51 | CCOC(=O)c1ccc(NC(=O)CSc2nnc(CNC(=O)c3ccc(OC)cc3)n2CC)cc1 | inactive
52 | COc1ccc(-c2nc3c(C)cccc3cc2CN2CCC(O)CC2)cc1OC | inconclusive: 20 µM [cytotoxic, partial curve, poor fit]
53 | COc1ccc(OC)c(NC(=O)c2oc3c(c2C)-c2nn(Cc4ccc(Cl)cc4)cc2CC3)c1 | inconclusive: 3.55 µM [cytotoxic, full curve, poor fit]
54 | O=C1c2c(O)ccc(O)c2C(=O)c2c(NCCNCCO)ccc(NCCNCCO)c21 | inconclusive: 341 nM [cytotoxic, full curve, poor fit] and inconclusive: 3.16 µM [cytotoxic, full curve, poor fit]
55 | O=C(CCc1c[nH]c2ccccc12)N1CCC2(CC1)CC(CO)N(C(=O)c1ccccc1)C2 (stereo unspecified) | inconclusive: 3.16 µM [cytotoxic, single point]
56 | COc1ccc(N2CC(C(=O)NCc3ccc(C(F)(F)F)cc3)NC2=O)cc1 (stereo unspecified) | inactive
57 | CNC(=O)[C@@H]1C[C@H](n2cc(CNS(=O)(=O)c3cc(C)ccc3F)nn2)CN1 | inconclusive: 0.891 µM [rising, full curve, poor fit]
58 | NCCc1cccc(CN2CCC(OCc3ccccc3)CC2)c1 | inactive
59 | Cc1nn(C)c(C)c1S(=O)(=O)N1CC[C@@H]2COCCN(C)[C@@H]2C1 | inactive
60 | Cc1ccc(-n2nc(C(=O)NCc3ccc(F)cc3Cl)c3c4ccccc4n(C)c3c2=O)cc1 | inconclusive: 1 µM [rising, full curve, poor fit]
61 | O=C1NC(=NC2CCCCC2)C2(CCCN(Cc3ccccc3)C2)N1c1cc(F)cc(F)c1 (stereo unspecified) | inconclusive: 25.1 µM [cytotoxic, partial curve, poor fit]
